# Results reported in a collection of fitness landscapes (doi:10.1126/science.1257360).
# The other results are listed elsewhere or left out.
# B1: PhoQ; a variant is named by its letters at X, in order, P23837 (parent)
# chain: MKKLLRLFFPLSLRVRFLLATAAVVLVLSLAYGMVALIGYSVSFDKTTFRLLRGESNLFYTLAKWENNKLHVELPENIDKQSPTMTLIYDENGQLLWAQRDVPWLMKMIQPDWLKSNGFHEIEADVNDTSLLLSGDHSIQQQLQEVREDDDDAEMTHSVAVNVYPATSRMPKLTIVVVDTIPVELKSSYMVWSWFIYVLSANLLLVIPLLWVAAWWSLRPIEALAKEVRELEEHNRELLNPATTRELTSLVRNLNRLLKSERERYDKYRTTLTDLTHSLKTPLXXLQXXLRSLRSEKMSVSDAEPVMLEQISRISQQIGYYLHRASMRGGTLLSRELHPVAPLLDNLTSALNKVYQRKGVNISLDISPEISFVGEQNDFVEVMGNVLDNACKYCLEFVEISARQTDEHLYIVVEDDGPGIPLSKREVIFDRGQRVDTLRPGQGVGLAVAREITEQYEGKIVAGESMLGGARMEVIFGRQHSAPKDE
# Variants of: B1
# Assay: enrichment ratio after two sorts for PhoP signalling (ratio (wild type AVST 3.29)); higher = more functional
# Conditions: with PhoP (E. coli)
row,Variant,enrichment ratio
1,RLIE,≤ 0.25
2,LEMW,≤ 0.25
3,QMDR,≤ 0.25
4,GRNI,≤ 0.25
5,WSCL,≤ 0.25
6,PGDK,≤ 0.25
7,VQKG,≤ 0.25
8,AGPV,≤ 0.25
9,RMRV,≤ 0.25
10,PYHP,≤ 0.25
11,NFSI,≤ 0.25
12,MVWY,≤ 0.25
13,PFPI,≤ 0.25
14,RNQH,≤ 0.25
15,TMSS,9.06
16,RKPV,≤ 0.25
17,DSSS,≤ 0.25
18,GQMI,≤ 0.25
19,IGLN,≤ 0.25
20,HDRA,≤ 0.25
21,MHDQ,≤ 0.25
22,YNEA,≤ 0.25
23,TPYT,≤ 0.25
24,LYLD,≤ 0.25
25,GWRE,≤ 0.25
26,ECHM,≤ 0.25

row,Variant,enrichment ratio
1,MNTV,12.2
2,TTSK,2.9
3,IETT,≤ 0.25
4,MMTG,≤ 0.25
5,QHRL,≤ 0.25
6,PGIT,≤ 0.25
7,WKVM,≤ 0.25
8,TWYL,≤ 0.25
9,GTKP,≤ 0.25
10,HHVA,≤ 0.25
11,NATL,≤ 0.25
12,HFKK,≤ 0.25
13,EENS,≤ 0.25
14,MVLN,0.464
15,QWSQ,≤ 0.25
16,FPMK,≤ 0.25
17,ENKC,≤ 0.25
18,WNFC,≤ 0.25
19,FASF,≤ 0.25
20,RGHP,≤ 0.25
21,VMLS,≤ 0.25
22,GTDI,≤ 0.25
23,FIWF,≤ 0.25
24,HPYR,≤ 0.25
25,TWDW,≤ 0.25
26,VANH,≤ 0.25

row,Variant,enrichment ratio
1,AING,≤ 0.25
2,QEMY,≤ 0.25
3,IMPC,≤ 0.25
4,IPAH,≤ 0.25
5,GKSR,≤ 0.25
6,QSER,≤ 0.25
7,EARS,≤ 0.25
8,QARN,≤ 0.25
9,SILQ,6.96
10,ARLR,≤ 0.25
11,SHFS,≤ 0.25
12,ELIR,0.697
13,TNPG,≤ 0.25
14,SDKA,≤ 0.25
15,IWDA,≤ 0.25
16,MIWF,≤ 0.25
17,VAQG,≤ 0.25
18,YYTA,≤ 0.25
19,FLIH,≤ 0.25
20,AHWH,≤ 0.25
21,TMGH,15.3
22,TGIL,≤ 0.25
23,QMCQ,≤ 0.25
24,DPQY,≤ 0.25
25,TRAM,15.1
26,LHTL,≤ 0.25

row,Variant,enrichment ratio
1,IDEW,≤ 0.25
2,MDNQ,≤ 0.25
3,WECM,≤ 0.25
4,RSFV,≤ 0.25
5,IFHL,≤ 0.25
6,VYCQ,≤ 0.25
7,ILWE,≤ 0.25
8,LIMD,≤ 0.25
9,YCLI,3.1
10,SLNC,≤ 0.25
11,ACHF,≤ 0.25
12,ILKC,≤ 0.25
13,NPTS,≤ 0.25
14,VNSN,≤ 0.25
15,FLRG,≤ 0.25
16,TNDT,≤ 0.25
17,LHAH,≤ 0.25
18,TGRV,≤ 0.25
19,RAHK,≤ 0.25
20,TQAA,3.31
21,RTED,≤ 0.25
22,FVEP,≤ 0.25
23,KGDH,≤ 0.25
24,WMKA,≤ 0.25
25,TPMP,≤ 0.25
26,WEEN,≤ 0.25

row,Variant,enrichment ratio
1,DHNV,≤ 0.25
2,IWKW,≤ 0.25
3,PLMN,≤ 0.25
4,EAMP,≤ 0.25
5,HMTL,8.9
6,LPPM,≤ 0.25
7,KIYM,≤ 0.25
8,LTVM,≤ 0.25
9,CVFQ,≤ 0.25
10,SCHP,≤ 0.25
11,ERFF,≤ 0.25
12,FDRS,≤ 0.25
13,FEIA,≤ 0.25
14,FFCG,≤ 0.25
15,TCQF,6.94
16,KHID,≤ 0.25
17,MFYM,0.288
18,CTCC,≤ 0.25
19,SIIQ,2.23
20,VHQN,≤ 0.25
21,GSWP,≤ 0.25
22,DIHH,≤ 0.25
23,GISR,≤ 0.25
24,YHTI,≤ 0.25
25,EVTR,≤ 0.25
26,ICEF,≤ 0.25

row,Variant,enrichment ratio
1,WLRG,≤ 0.25
2,VPHH,≤ 0.25
3,MTGP,≤ 0.25
4,DFEW,≤ 0.25
5,EAVN,≤ 0.25
6,IVAQ,≤ 0.25
7,KIKK,≤ 0.25
8,QVEF,≤ 0.25
9,EVSL,≤ 0.25
10,YNPS,≤ 0.25
11,IPRN,≤ 0.25
12,SILW,≤ 0.25
13,QVGC,≤ 0.25
14,VLNF,≤ 0.25
15,HCPA,≤ 0.25
16,QYNK,≤ 0.25
17,DKCP,≤ 0.25
18,YLVP,≤ 0.25
19,WAAL,≤ 0.25
20,MQII,≤ 0.25
21,GEPK,≤ 0.25
22,NGTW,≤ 0.25
23,NAYS,≤ 0.25
